To fix the notation:
T1: UNK ZnF1-3 (human, UniProt Q9C0B0 31-174)
T1 sequence: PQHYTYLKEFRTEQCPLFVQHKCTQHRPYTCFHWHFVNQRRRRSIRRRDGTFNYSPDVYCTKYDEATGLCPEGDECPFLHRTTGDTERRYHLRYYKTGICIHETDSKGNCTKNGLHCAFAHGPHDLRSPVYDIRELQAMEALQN

B1: chr1:225611761:225611762:-_ENSG00000143815_ENST00000272163|hu_mus|hu_hu_hu_mus_True|1_98 (ssRNA)
RNA: GGGAGUUCUACAGUCCGACGAUCCCAGGCCAUCGGCCUCUUACCACUUCACCCUCAACAAACUUCCUACUUGGCAUUUUCUAAAAUUAGUCUGGCCGCGCUCCGGCGGGAACUCCAGCCACUCCAGGACAGUCACCCGCACAGCAACAGAGGAUUGAGCAUCA
B2: chr2:24917620:24917621:+_ENSMUSG00000006476_ENSMUST00000102931|mus_hu|motif|central (ssRNA)
RNA: GGGAGUUCUACAGUCCGACGAUCCAAGAAAUGCUGCUUCCCUUUGAAUUGUUUCGGGGGUGUAGAAAUUGCACUUAUUUCGGUGAACCCCAUGGAGGGAUGCCCACAGCUGAGCCUCCAGGCGAGGCAUGGCAGGUCAGUGCCCAACAGAGGAUUGAGCAUCA
B3: chr16:45382771:45382772:-_ENSMUSG00000022661_ENSMUST00000163230|mus_mus|mus_mus_mus_hu_True|38_58 (ssRNA)
RNA: GGGAGUUCUACAGUCCGACGAUCCUGGGUCAUGUUAUAAGACAAAUGGACAGGGAGGGCAUGCUUCUCAAAAAAUGUGAACUACUCUCUAAGACUAACAAUAUUGCUCUAGCUAUAAAAAUAAGUUAAAUGAAUAAGUUAAGACAACAGAGGAUUGAGCAUCA
B4: chr12:39763582:39763583:-_ENSG00000139116_ENST00000544797|hu_mus|hu_hu_hu_mus_False|8_88 (ssRNA)
RNA: GGGAGUUCUACAGUCCGACGAUCCUCUAGGAACUGGGCAUUCACUUUAAAAUCUGGAGGGGGCAGCCCGUUUUUAAUCGCUGAGGUCUUUUUCUCAUCAAUACUCUUGAACAGGUGUCUAACAGCACGAGAAAUAAUGCCCUGCAACAGAGGAUUGAGCAUCA
B5: chr15:103030146:103030147:-_ENSMUSG00000009575_ENSMUST00000118152|mus_hu|motif|central (ssRNA)
RNA: GGGAGUUCUACAGUCCGACGAUCUUUGUUUUCCGCAUCCUCAGGAUAUGCAUGCCAUGUCAGUCUCUCUUCAUAAAAUGCGGUCACAAUUUGUGGACAUUUCACAUUAGCUUCUUUUGCAAGAACCAGGUCAGCUUCAUCUGUCAACAGAGGAUUGAGCAUCA
B6: chr1:60041781:60041782:+_ENSMUSG00000041040_ENSMUST00000036540|mus_hu|mus_mus_mus_hu_False|8_88 (ssRNA)
RNA: GGGAGUUCUACAGUCCGACGAUCAAGUUUACAAUAGUAAAGUAAAUCAAAUUUAGUCAAAUUUUCUUUUAUUUUCCUUCACAAAAGAAAAUCUUUAUAACCCAGUCCUAGUCUUGGACAUAGUGAAUCUCCAUGGGUCUGACUCAACAGAGGAUUGAGCAUCA
B7: chr16:38090358:38090359:+_ENSMUSG00000022812_ENSMUST00000023507|mus_hu|FALSE|FALSE (ssRNA)
RNA: GGGAGUUCUACAGUCCGACGAUCCCUUCAAGACAGAUCGGCACGGAUAUUUAACAUAUAGAUGAUUUAGGACUUGGGAAAAAAUACAAUUCUUUCCCCUCCCUUUCCUGGGAGGAGAGAAAAGAGAGGGCAAAUCCUAAAAAACAACAGAGGAUUGAGCAUCA
B8: chr6:38652254:38652255:-_ENSG00000124767_ENST00000373365|hu_hu|hu_hu_hu_mus_False|48_48 (ssRNA)
RNA: GGGAGUUCUACAGUCCGACGAUCCGAGAACUUCAUAGCAGGGAAGUCAAGCUUCUGCAGGAGGGUCAGUCCAAGAACCCUCGUAUAAAAAUCCAGUGACUUCUUAGGAUCCUUAAUUCUUAGCAUCGUUUGCUGCAGUAGAAACAACAGAGGAUUGAGCAUCA
B9: chr1:39494564:39494565:+_ENSG00000168653_ENST00000372967|hu_hu|hu_hu_hu_mus_True|8_8 (ssRNA)
RNA: GGGAGUUCUACAGUCCGACGAUCAUGCAUUCGCCUCAUCGUUUUGUACCGAAGCAAGCACUCUUCGAAGUCAUCGAACUCUAUCUUGCACUCCUUUUUCGCCCGGGUCCCACCGAUCCCGUGUGCACAUUCUAUCCACUCUUUCAACAGAGGAUUGAGCAUCA
B10: chr17:45747064:45747065:+_ENSG00000108424_ENST00000290158|hu_hu|hu_hu_hu_mus_True|18_18 (ssRNA)
RNA: GGGAGUUCUACAGUCCGACGAUCGCCCACAGUCCACGCUGUUGUGUCUCGAACAACUACACUGGGGUCUUUCAUUAGUUCUAUUAGGGUGGGCAUAGCCUGUAUGACUAAUGGUUUGAGCUGACUGGGCUCUGGUCCUUCCAACAACAGAGGAUUGAGCAUCA
B11: chr1:150204246:150204247:-_ENSG00000143401_ENST00000314136|hu_hu|FALSE|FALSE (ssRNA)
RNA: GGGAGUUCUACAGUCCGACGAUCGAAAGUAUCAUUCAGGCCUUCAAUUUCCCCAUUGACACACAGGCAAUUAUCAAGGACUAACUCUGUCACCUCCUCCGGGGAUCUGUUCCUUAACUCCAGGUUAAUCUUCUUCUUCAUCUCCAACAGAGGAUUGAGCAUCA
B12: chr4:48207216:48207217:-_ENSMUSG00000028343_ENSMUST00000030028|mus_mus|FALSE|FALSE (ssRNA)
RNA: GGGAGUUCUACAGUCCGACGAUCGUGGCAGUGUAAGUUAACGGCGUGCUUCCGGCAAUGCCACCUUCCGCUUGCAUGAUAAAGACUGUCCAGGACAGAUUUAAAGUGGAGACAGGCCUCUGGUUUUUAUUUUGUUCUUUAAAACAACAGAGGAUUGAGCAUCA
B13: 142151363_142153690_750_CDS_ENSG00000109445_ENST00000262990|human|control|control (ssRNA)
RNA: GGGAGUUCUACAGUCCGACGAUCACAGAAACAAGCCUUACAACGGAGACAUGAGUGCUGACCAAGCCGAUUGCAUGAAACACAUUUAAAUGUUUCUGCCUCUAAAACCUGGCAGCUGGCUUGAUGCUCAAAUUGAUCAUCUUCCAACAGAGGAUUGAGCAUCA
B14: chr5:108714765:108714766:-_ENSG00000198961_ENST00000361557|hu_mus|FALSE|FALSE (ssRNA)
RNA: GGGAGUUCUACAGUCCGACGAUCACAAACUGCUGGAGUAUGCUCUGUCUCAGUGCGAUUAUGAAGGUUUGUAUUGCUUUCUAAGGUCUCCCUGACUUCCUCACUAUGACAUACUGUGGCAAUGGAUGGACUGCUCUCAGUGCUCAACAGAGGAUUGAGCAUCA
B15: 87057791_87057911_813_CDS_ENSMUSG00000046442_ENSMUST00000055438|mouse|control|control (ssRNA)
RNA: GGGAGUUCUACAGUCCGACGAUCAAAGUCAGGAAUGCAGACGUGUUUGUCCUCCAUUUUCCUUCGCAUGUUCUUGAUGGCAUGAAUUGACGUCUCAUAAUAAAUCUGAGGCCUCCUGCGCAGAGGGAAGUCCUUCACCCAACUCAACAGAGGAUUGAGCAUCA
B16: chr19:53454881:53454882:-_ENSMUSG00000025024_ENSMUST00000025997|mus_mus|FALSE|FALSE (ssRNA)
RNA: GGGAGUUCUACAGUCCGACGAUCGUUUCAUUCUACCAAAGCCAAACAAUGACAACAAUGUAUCUUCCUUACUCAGCAUCUAAGCAAUCAGUUACCUUUAGAAAAAUACAAGGAUAAAAAGGAGAGUGUAAAGUAAAGCCCUGCCAACAGAGGAUUGAGCAUCA
B17: chr4:110384322:110384323:+_ENSG00000138802_ENST00000265175|hu_mus|FALSE|FALSE (ssRNA)
RNA: GGGAGUUCUACAGUCCGACGAUCGUAGGGCUGGGAGGCACUCGAAUAGGAAUGGGAUGCUGAUGCUGGAAUUCCUUGGAAAGAUCCGGGCAUGGAGCCCCCCAUGUGAGGAGCGGAAGGACCUCUGCCAUACAUCUGCUGUGCCAACAGAGGAUUGAGCAUCA
B18: 155305557_155306525_3075_CDS_ENSMUSG00000042699_ENSMUST00000042141|mouse|control|control (ssRNA)
RNA: GGGAGUUCUACAGUCCGACGAUCGAUAACAACAUCCAAAUUAUUAUCUGGUCCAGUGUUAGUAAACACUUGUGUCAAUAAACAAUCUUCGGGAAAUCCAGAGUUAAUCAGAAUCUCUUUAAGCUGUACUUUGGCCUCCCAAGUCAACAGAGGAUUGAGCAUCA
B19: 129203514_129217221_856_CDS_ENSMUSG00000036155_ENSMUST00000038361|mouse|control|control (ssRNA)
RNA: GGGAGUUCUACAGUCCGACGAUCCAGGAUGUUAUCCAGCAAGACGGCGAGCGUUUUCUUCAGAUCAUAGGCUGUCAUGACACCAGCGUAGGGGCCAUCCACCACGUCCCUGUUCUCCUCUGCCAGUGCCUUAAUGUACCUCUUCAACAGAGGAUUGAGCAUCA
B20: chr1:163117127:163117128:-_ENSG00000143248_ENST00000313961|hu_mus|hu_hu_hu_mus_False|68_78 (ssRNA)
RNA: GGGAGUUCUACAGUCCGACGAUCUGCUACAAAGGAUGUAACUCAACUCACAGGGCAUGAUUUCAUAGCCUGGCUAAAUGACUACUUGAUUAGCUCCUUAUAAAAUUCAGAGCGCACAAAGCGGGGCAGAGAAUCCUUCUCCAUCAACAGAGGAUUGAGCAUCA
B21: 103636980_103637622_244_CDS_ENSMUSG00000027184_ENSMUST00000028607|mouse|control|control (ssRNA)
RNA: GGGAGUUCUACAGUCCGACGAUCAUGCUGAGAAGCCGGCGCAGCUGCCCCGGCCGCCGCCUCACUCCCGGAGGAACCGGACGGCGGCGGCGGUCCCGACGAUUUGCUGCCGCUUCCGCUGUGGCUGGUGGCCGAGGGCAUCGUCAACAGAGGAUUGAGCAUCA
B22: chr4:144460044:144460045:+_ENSG00000153147_ENST00000283131|hu_mus|hu_hu_hu_mus_False|18_18 (ssRNA)
RNA: GGGAGUUCUACAGUCCGACGAUCACGGUCCAUAGCCUGAAGAUCAACUUGCGGAUUCCAAUCUGAGUCAUAUAAAAUGACUACAUCAGCAGUUGCAAGAUUGAUGCCCAGACCACCAGCACGCGUGCUUAGCAUAAAUACAAACAACAGAGGAUUGAGCAUCA

Drawing on PMC12136788, this text covers binding signal for 22 molecules.

The other results are listed elsewhere or left out.

For this assay, the target named is T1, UNK ZnF1-3. The assay can be described thus: nsRBNS (natural sequence RNA bind-n-seq); RBNS binding buffer (assumed for nsRBNS): 25 mM Tris pH 7.5, 150 mM KCl, 3 mM MgCl2, 0.01% Triton X-100, 500 ug/ml BSA, 20 U/ml SUPERase-In, 4 C; UNK is unkempt and MSI1 is Musashi-1; names of the RNAs are library labels; protein concentration not given here; high values mean tight binding.
B1 showed a binding signal of 1.2 enrichment R.

Regarding B2, the binding signal was determined as 0.889 enrichment R.

Regarding B3, the binding signal was 2.29 enrichment R. As to B4, the binding signal amounted to 1.81 enrichment R. B5 had a binding signal of 0.722 enrichment R. The same measure for B6: 0.653 enrichment R; for B7: 0.982 enrichment R. The molecule B8 gave a binding signal of 0.956 enrichment R.

Molecule B9 returned a binding signal of 0.585 enrichment R. B10 came in with a binding signal of 0.626 enrichment R.

In the case of B11, the binding signal came to 0.934 enrichment R.

As to B12, the binding signal is 0.857 enrichment R. For the molecule B13, the binding signal is 0.839 enrichment R.

B14: the binding signal was found to be 0.773 enrichment R. B15 displayed a binding signal of 0.588 enrichment R.

In turn, B16 gave a binding signal of 1.64 enrichment R. With B17, the binding signal amounted to 1.19 enrichment R. B18 returned a binding signal of 0.857 enrichment R. In turn, B19 gave a binding signal of 0.43 enrichment R. Turning to B20, the binding signal worked out at 0.967 enrichment R. In turn, B21 showed a binding signal of 0.733 enrichment R. On to B22, for which the binding signal was found to be 1.03 enrichment R.
